Experimental data reported in ChEMBL document CHEMBL3885881, “DrugMatrix”.

Legend:
[1] = species: Rattus norvegicus; test: DrugMatrix - Regimen: Daily Repeat; assay type: toxicity, organism-based, Sprague-Dawley; parameters: regimen Daily Repeat, gender Male, age 6-8 weeks; conditions: in vivo, 0 mg/kg, dose level Control
[2] = species: Rattus norvegicus; assay type: toxicity, organism-based, Sprague-Dawley; conditions: in vivo, sc, 0 mg/kg, 24 h, vehicle control, tissue Blood, route mini-PUMP - SUBCUTANEOUS, dose level Control, time 1 day, vehicle 100 % SALINE
[3] = po, 72 h, tissue Blood, route oral GAVAGE, time 3 day, vehicle 100 % WATER
[4] = sc, 72 h, tissue Blood, route mini-PUMP - SUBCUTANEOUS, time 3 day, vehicle 100 % SALINE
[5] = sc, 120 h, tissue Blood, route mini-PUMP - SUBCUTANEOUS, time 5 day, vehicle 100 % SALINE
[6] = po, 120 h, tissue Blood, route oral GAVAGE, time 5 day, vehicle 100 % WATER

SMILES | ABSOLUTE EOSINOPHIL [1, 3] | ABSOLUTE BASOPHIL [1, 4] | ABSOLUTE EOSINOPHIL [1, 4] | ABSOLUTE LYMPHOCYTE [1, 4] | ABSOLUTE BASOPHIL [1, 5] | ABSOLUTE EOSINOPHIL [1, 5] | ABSOLUTE LYMPHOCYTE [1, 5] | ABSOLUTE MONOCYTE [1, 5] | ABSOLUTE BASOPHIL [2] | ABSOLUTE EOSINOPHIL [2] | ABSOLUTE LYMPHOCYTE [2] | ABSOLUTE MONOCYTE [2] | ABSOLUTE MONOCYTE [1, 3] | ABSOLUTE EOSINOPHIL [1, 6] | NUCLEATED RED BLOOD CELLS [1, 6] | LACTATE DEHYDROGENASE ([1]; po, 120 h, tissue Plasma, route oral GAVAGE, time 5 day, vehicle 100 % WATER)
COc1ccc2c(c1)c(CC(=O)O)c(C)n2C(=O)c1ccc(Cl)cc1 [INDOMETHACIN] | 0 CELLS/uL [study A] and 91.5 CELLS/uL [study B] |  |  |  |  |  |  |  |  |  |  |  |  |  |  | 
CC[C@H](C)[C@H](NC(=O)[C@H](Cc1ccc(O)cc1)NC(=O)[C@@H](NC(=O)[C@H](CCCNC(=N)N)NC(=O)[C@@H](N)CC(=O)O)C(C)C)C(=O)N[C@@H](Cc1cnc[nH]1)C(=O)N1CCC[C@H]1C(=O)N[C@@H](Cc1ccccc1)C(=O)O [ANGIOTENSIN II] |  | 0.0333 CELLS/uL [study A] and 0 CELLS/uL [study B] | 0.0533 CELLS/uL [study A] and 77.17 CELLS/uL [study B] | 9.92 CELLS/uL [study A] and 14293.83 CELLS/uL [study B] | 0.0233 CELLS/uL [study A] and 0 CELLS/uL [study B] | 0.0367 CELLS/uL [study A] and 0 CELLS/uL [study B] | 8.92 CELLS/uL [study A] and 14257.33 CELLS/uL [study B] | 0.24 CELLS/uL [study A] and 326 CELLS/uL [study B] | 0.0533 CELLS/uL [study A] and 0 CELLS/uL [study B] | 0.0333 CELLS/uL [study A] and 26.17 CELLS/uL [study B] | 8.34 CELLS/uL [study A] and 10985.83 CELLS/uL [study B] | 0.3 CELLS/uL [study A] and 234.5 CELLS/uL [study B] |  |  |  | 
CCCC(CCC)C(=O)O [VALPROIC ACID] | 108.67 CELLS/uL [study A] and 33.67 CELLS/uL [study B] |  |  |  |  |  |  |  |  |  |  |  | 216.67 CELLS/uL [study A] and 72.17 CELLS/uL [study B] | 0 CELLS/uL [study A] and 48.67 CELLS/uL [study B] | 0 /100WBC [study A] and 0.33 /100WBC [study B] | 58 u/L [study A] and 180 u/L [study B]

The source holds more than one record for some entries. The list is limited to them. There may be further records. Values given together are repeats (runs, samples, wells, individuals or studies). What stands in brackets tells the records apart. Letters count within one entry.
